Hit rate of the full screen: of about 200,000 compounds, about 4,500 (2.2%) were called active. This list was built around the results that the source calls inconclusive (neither active nor inactive); the mix of calls is not that of the screen. Calls come from the whole dose curve; as a rule, active = well fitted inhibition curve with a large enough effect; inconclusive = small, poorly fitted or top-dose-only effect, or effect the other way; inactive = flat fitted curve, though single readings scatter. Potencies of inconclusive entries are doubtful fits and often do not repeat.
target: Cruzipain (Trypanosoma cruzi) (UniProt P25779); assay: qHTS Assay for Promiscuous and Specific Inhibitors of Cruzain (without detergent); conditions: purified cruzain, Z-FR-AMC fluorescence, no detergent; note: nearly all actives have a fitted effect of over 40% in size;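 for max response, negative = inhibition: plate controls were enzyme without inhibitor for no effect and buffer without enzyme for full effect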
Procedure, shortened: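 Detergent-free condition (0.00005% Triton X-100) in acetate buffer pH 5.5 with DTT. 1.5 nM enzyme and compound were pre-mixed 15 min, then 2 uM Z-FR-AMC substrate added; reaction progress from fluorescence change between first and third reads (60 s).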
Potency is the fitted concentration of half-maximal effect; tags give direction and shape of the fitted curve.

Sequence of UniProt P25779 (P25779 whole entry, looked up): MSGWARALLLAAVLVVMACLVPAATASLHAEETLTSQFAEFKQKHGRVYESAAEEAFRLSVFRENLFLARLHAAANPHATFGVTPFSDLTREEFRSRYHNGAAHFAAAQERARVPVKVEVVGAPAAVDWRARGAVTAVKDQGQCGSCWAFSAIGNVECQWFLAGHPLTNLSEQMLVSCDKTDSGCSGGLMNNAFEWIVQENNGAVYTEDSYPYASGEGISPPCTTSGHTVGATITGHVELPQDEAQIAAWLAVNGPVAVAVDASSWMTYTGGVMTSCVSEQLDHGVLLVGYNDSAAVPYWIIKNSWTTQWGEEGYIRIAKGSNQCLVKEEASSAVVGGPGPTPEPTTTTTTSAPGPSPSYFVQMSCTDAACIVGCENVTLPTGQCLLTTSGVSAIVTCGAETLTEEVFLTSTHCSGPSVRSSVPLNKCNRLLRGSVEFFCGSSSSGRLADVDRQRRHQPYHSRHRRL

Row | Compound | Potency | max response, negative = inhibition
1 | COc1cc2nc(Nc3ccc(C)c(C)c3)nc(N)c2cc1OC | inconclusive: 3.98 µM [activator, full curve] | –
2 | Cc1nc2ccn(Cc3cccs3)c(=O)c2cc1C(=O)NCc1ccc(Cl)cc1 | inconclusive: 39.8 µM [activator, single point] | –
3 | CS(=O)(=O)N1CCN(c2ccc(NC(=O)CSc3ccc(Cl)cc3)cc2)CC1 | active: 3.98 µM | –
4 | CCOc1ccc(S(=O)(=O)N(CC(=O)N/N=C/c2ccc(-c3ccc([N+](=O)[O-])cc3)o2)c2ccccc2)cc1 | inconclusive: 3.98 µM [inhibitor, full curve] | –
5 | COc1ccc(S(=O)(=O)Cc2ccc(C(=O)N3CCN(c4cc(Cl)ccc4C)CC3)o2)cc1 | inconclusive: 25.1 µM [activator, single point] | –
6 | CCOC(=O)c1c(NC(=O)Cn2cnc3sc(C)c(-c4ccccc4)c3c2=O)sc(C)c1C | active: 12.6 µM | –
7 | COc1ccccc1NC(=O)C1=C(C)Nc2c(C(=O)Nc3cccc(C)c3)cnn2C1c1ccccc1C (centres undefined) | inconclusive: 31.6 µM [inhibitor, single point] | –
8 | O=C1CC2(CCCC2)CC(=O)N1CCCCNC[C@H]1COc2ccccc2O1 | – | inactive: 11.8%
9 | c1ccc(-c2ccc(N3CCCC4(CCNCC4)C3)cc2)cc1 | active: 31.6 µM | –
10 | O=C(CSCCO)Nc1ccc(C23CC4CC(CC(C4)C2)C3)cc1 | inconclusive: 39.8 µM [activator, single point] | –
11 | Cc1cccc(N2CN=c3s/c(=C\c4ccncc4)c(=O)n3C2)c1 | inconclusive: 31.6 µM [inhibitor, single point] | –
12 | CCc1ccc(NC(=O)CSc2cn(CC(=O)N3CCOCC3)c3ccccc23)cc1 | inconclusive: 39.8 µM [activator, single point] | –
13 | Cc1ccc(-c2nc3cccnc3s2)cc1NS(=O)(=O)c1ccc2c(c1)CCCC2 | inconclusive: 39.8 µM [inhibitor, single point] | –
14 | Cc1ccc(S(=O)(=O)N(C)C)cc1-n1c(SCC(=O)Nc2ccc(F)cc2Cl)nc2ccccc2c1=O | inconclusive: 39.8 µM [inhibitor, single point] | –
15 | Cn1c(C(=O)N2CCCC(C(=O)N3CCN(c4ccccc4)CC3)C2)cc2sccc21 (centres undefined) | inconclusive: 39.8 µM [activator, single point] | –
16 | CN1c2ccccc2C(C)(C)C12C=Nc1c(ccc3ccccc13)O2 (centres undefined) | inconclusive: 39.8 µM [inhibitor, single point] | –
17 | N#CCSc1nc2scc(-c3cccs3)c2c(=O)n1CCc1ccccc1 | active: 15.8 µM | –
18 | COc1ccc(N2CCN(C(CNC(=O)c3cccc(OC)c3)c3cccnc3)CC2)cc1 (centres undefined) | inconclusive: 39.8 µM [activator, single point] | –
19 | CCc1ccc(CNc2ncnc3onc(-c4ccc(Cl)cc4)c23)cc1 | – | inactive: -9.44%
20 | CCOc1ccc(CN(C(=O)c2cc(=O)c3cc(Cl)ccc3o2)C2CCS(=O)(=O)C2)cc1 (centres undefined) | inconclusive: 31.6 µM [activator, single point] | –

Row | Compound | Potency | max response, negative = inhibition
21 | C=CCN1C(=O)/C(=C2/C(=O)N(CC(=O)O)c3ccccc32)S/C1=N/c1nccs1 | inconclusive: 25.1 µM [activator, partial curve] | –
22 | Cc1noc(C)c1C(=O)N1CCC2(CC1)CN(c1cccc(-c3ccccc3)c1)C2 | inconclusive: 31.6 µM [activator, single point] | –
23 | COc1cc(OC)c(-c2nn3c(C4CCCCC4)nnc3s2)cc1OC | inconclusive: 31.6 µM [activator, partial curve] | –
24 | COc1ccccc1NS(=O)(=O)c1ccc(C)c(NC(=O)c2ccc(S(=O)(=O)N3CCCCCC3)cc2)c1 | active: 31.6 µM | –
25 | Cc1onc(-c2ccccc2Cl)c1C(=O)Nc1ccccc1C(=O)NC(C)C | inconclusive: 39.8 µM [activator, single point] | –
26 | CC(C)CSc1nc2ccccc2c(=O)[nH]1 | inconclusive: 1.58 µM [activator, single point] | –
27 | COc1ccc(NC(=O)/C(C#N)=C/c2ccc(Br)o2)cc1 | inconclusive: 31.6 µM [inhibitor, single point] | –
28 | O=C(CSc1oc(-c2ccc(F)cc2)nc1S(=O)(=O)c1ccc(Cl)cc1)c1ccccc1 | active: 31.6 µM | –
29 | CCCC1=Nc2cc(C(=O)NCCCOC(C)C)ccc2Sc2ccccc21 | inconclusive: 39.8 µM [activator, single point] | –
30 | O=C(CCS(=O)(=O)c1nc(-c2ccc3c(c2)OCO3)cc(C(F)(F)F)n1)Nc1ccc(F)cc1F | inconclusive: 31.6 µM [inhibitor, single point] | –
31 | CCN(CC)S(=O)(=O)c1cc(NC(=O)C(=O)c2c(-c3ccccc3)cc3ccccn23)ccc1C | inconclusive: 15.8 µM [inhibitor, partial curve] | –
32 | Cc1ccc(NC(=O)C2CCN(C(=O)c3cnn(-c4ccccc4)c3-n3cccc3)CC2)cc1C | inconclusive: 39.8 µM [activator, single point] | –
33 | CCNC(=S)N(CCc1ccccc1C)Cc1cc2cc(OC)c(OC)cc2[nH]c1=O | inconclusive: 25.1 µM [activator, single point] | –
34 | COCCN1C(=O)/C(=C/c2ccc(OCc3ccc(C(=O)O)cc3)c(OC)c2)SC1=Nc1ccccc1 | inconclusive: 12.6 µM [activator, partial curve] | –
35 | COc1ccc(-c2coc3cc(OC(C)=O)cc(OC(C)=O)c3c2=O)cc1 | – | inactive: -3.83%
36 | COc1ccc(CCNC(=O)CCCn2c(=O)c3ccccc3n(CC(=O)Nc3ccc(C)cc3Cl)c2=O)cc1OC | inconclusive: 20 µM [activator, partial curve, poor fit] | –
37 | NNC(=O)CNC(c1ccccc1)c1cc(Br)ccc1NC(=O)CCN1CCOCC1 (centres undefined) | – | inactive: 1.56%
38 | COc1ccc(CNC(=O)c2cc3c(=O)[nH]c4ccccc4c3n2C)c(OC)c1 | inconclusive: 39.8 µM [activator, single point] | –
39 | Cc1nn2c(=O)cc(COC(=O)C(c3ccccc3)c3ccccc3)nc2s1 | inconclusive: 39.8 µM [activator, single point] | –
